Source: the supplement of paper PMC11417369
± gives the standard deviation of the averaged measurements. Some of the results follow.

These sequences were tested on PfAP2-LT AP2 domain (GST-tagged) (assay: gcPBM binding intensity (ln(normalized median fluorescence intensity)); higher = stronger DNA binding).
Outline: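 GST-fused DNA-binding domains of P. falciparum, expressed in E. coli, were applied at about 25 μg on average for 1 h to an Agilent 4 × 180k array of primer-extended double-stranded 36-bp intergenic genomic probes and negative controls. Binding intensity is the highest Masliner-normalised natural-log median intensity across replicate spots of either probe orientation, measured with Alexa488 anti-GST antibody and a 488 nm scan.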

Sequence	gcPBM binding intensity (ln)
AAAATCTATAATATAACACACATATATTCTATATGG [CACACA_site7821]	8.82 ± 0.36
CATACATACAGACACACACACATATAAATACATACA [CACACA_site6533]	9.88 ± 0.35
TTCCTGTTAATTACAACACACAATTCTTATTTTATG [CACACA_site6507]	8.89 ± 0.58
CATTATGTTGTAAATGCACACATACAAATACATATA [CACACA_site8380]	9.14 ± 0.35
GTAAGTTGTGCATTCACACACATATAAATATAAATA [CACACA_site7536]	9.12 ± 0.38
TTATGATATATTTGTTGTACGCTTTTTTTATGAACT [XGTACX_site573]	8.97 ± 0.47
AATTAAATTACTTATACACACATAAAATGCCTGTAT [CACACA_site6597]	9.03 ± 0.39
ATGACCCACTTTTCTGCACACATAAAAAATATATAA [CACACA_site8092]	9.01 ± 0.42
AACACATACATATATACACACACAAAATAATAAAAT [CACACA_site8724]	9.8 ± 0.39
TTAACAAAACTTTTAACACACAAAAAAAAAAAAAAA [CACACA_site6947]	8.65 ± 0.38
CTATAATAATAAAGTGAACACACACCGATAATATAT [CACACA_site9377]	9.26 ± 0.32
TGTTTTATTATTTATAGTACATAAAAAAATATTGTA [XGTACX_site8963]	8.24 ± 0.35
ATATATATGTGAAAATCACACATTGCTTATCTGTAA [CACACA_site6044]	9.39 ± 0.35
AACAATATTATTGTTTGTACTCACATATATAATATA [XGTACX_site8063]	8.61 ± 0.41
AAAAAAACATGAAACACACACAAATATATATATATA [CACACA_site1884]	9.53 ± 0.52
TTCGTATATTATTAATGTACATTATAAAATCAATAT [XGTACX_site5751]	8.54 ± 0.42
AAAAAAAAAAAAAAAAAAAAAAAAAAAATTCTATAT [GTGCAC_negctrl_site468]	8.885 ± 0.021
AAGGCATACAATACCTGTACGCAACCTTAAAAAGAA [XGTACX_site6070]	9.02 ± 0.59
TATATATATATATATGGTACAGTTTATGCCTTTTAA [XGTACX_site6695]	9.58 ± 0.3

Sequence	gcPBM binding intensity (ln)
ATTTTCATGATAAAGGTGCAATTATTTTTATAAGAA	8.43 ± 0.42
TATAATATATACAAATGTACATATATATATATATAT [XGTACX_site4559]	9.57 ± 0.15
TTATTTATAATATATACACACTAACATTATTTATCC [CACACA_site4835]	8.8 ± 0.51
AGATATTTCATTTAAAGTACATTCTTTATCACATAA [XGTACX_site6731]	8.46 ± 0.52
CACACGCACAAAAACACACACAAAGGTGTTCTTATA [CACACA_site6724]	9.38 ± 0.37
TTATTTTTTTTTTTTCGTACTTATTTATCTTGGTAT [XGTACX_site78]	8.67 ± 0.49
TTTTTATTAATAGATATAAATATATAATATGAATGT [TGCATGCA_negctrl_site309]	8.53 ± 0.49
ATATATATATATATTTGTACAGATTTATATTATAAT [XGTACX_site7612]	9.01 ± 0.36
GAAAATTTAATATAGAACGAAAGCATACACATATAT [GTGCAC_negctrl_site424]	8.9 ± 0.44
AAATATTATAGCACCACACACTTATTTTATATATAT [CACACA_site5281]	9.07 ± 0.33
CCATATAATATGAACAGTACACACAAAATAAATTCG [XGTACX_site7590]	9.14 ± 0.41
AATATAAAAAAAAAATGTACATATTATATATATATA [XGTACX_site5113]	8.88 ± 0.38
AAAAATTTTTTTTCATTTGTTTTTATTCCGTAAAAA [CACACA_negctrl_site1217]	8.23 ± 0.47
ACCGAAGGAATTTATAGTACACATCATAAATAAATT [XGTACX_site4100]	8.76 ± 0.48
TATAATATAAAATAATGTACTTTGAAATATGACATA [XGTACX_site3579]	8.49 ± 0.4
AGTTTGATTTTTTCTTATAATATATTATTATATATT [CACACA_negctrl_site376]	8.9 ± 0.46
GGGGTATCTTCCTATGCACACTTGTTATGTACTAAC [CACACA_site4610]	9.36 ± 0.42
TTTTTGTTTTTGTTTTGTACTCATACATACTATCAT [XGTACX_site4210]	8.97 ± 0.44
CTTTTATTAAAATTCACACACATAAATTTTTATAAA [CACACA_site1993]	8.61 ± 0.4

Sequence	gcPBM binding intensity (ln)
ATATATACGTATGAATGTATATTTGTTTGATTTTTT [CACACA_negctrl_site835]	8.73 ± 0.46
ATATGTGATTTCTAATGTACACAAAAAAAAAAAAAA [XGTACX_site7701]	8.72 ± 0.45
TCTTCAAACAAAAAAAATAATAAAAAGTACAAAATG [CACACA_negctrl_site363]	8.64 ± 0.45
TTATGTCATAAATGCACACATATATAAATACAGATA [CACACA_site4959]	9.04 ± 0.33
TATATAAGGATATATACACACATATAGGTATTTATA [CACACA_site7092]	8.96 ± 0.42
TCAGGAATATAAAGTGCACACATAATTTGGGGGCAA [CACACA_site7974]	9.34 ± 0.4
AATGATATTATCTCTTCACACACTCACATACAGACA [CACACA_site8335]	9.12 ± 0.3
AATATGATTATTACCCGTACATATTACCTTATGGTA [XGTACX_site1714]	8.85 ± 0.42
TTTTAAAAAAATAAAAAATAATAAAAAAAATAAAAA [CACACA_negctrl_site1693]	8.21 ± 0.47
AAAAATAAATAAAGTGGTACATAAAAAAGAGAAATT [XGTACX_site874]	9.01 ± 0.54
GTGCATATGTAGATATGTACATATTTATTTATTATT [XGTACX_site7343]	8.89 ± 0.31
TTTACAGATACATTCACACATAAATTCATGTATAAT [CACACA_site5387]	8.78 ± 0.37
ATATATAATTTTTGTTGTACATTATAAAAATAATTA [XGTACX_site2738]	8.29 ± 0.21
ATTGTTATGAGAACAGCACACAAGCTACATCATATA [CACACA_site8192]	8.96 ± 0.36
GCGGCGGTATCATGCACACGTATATATTGTAACAGT [CACACA_site4958]	9.43 ± 0.43
TCATTGAAAAAAATGTGTACTCATCAAGTATATATT [XGTACX_site6430]	8.69 ± 0.43
ATTATATAATTGTCTTCACACACACCGATATATATA [CACACA_site8883]	9.58 ± 0.38
ATAAGAAAAAAGAACTGTACTAATAAAATATAAAAA [XGTACX_site3715]	8.65 ± 0.59
